The text below walks through data of US11389455B2, “Inhibitors of HIV-1 integrase multimerization” (Institute for Cancer Research, priority 2017, dated 2022).

The experiment addresses Prototype Foamy Virus (PFV) integrase (Human spumaretrovirus, UniProt P14350). As to the kind of experiment: Specificity: single end and concerted integration in vitro, PFV integrase. It counts as biochemical.

Consider `Cn1ncnc2c(=O)n(C)c(=O)nc1-2` [Formula I-1], for which the “inhibitory activity for PFV integrase single end or concerted integration catalysis” value (tested up to 1 mM) is given as “neither TF-1 or NBF-X had inhibitory activity”. For `O=C(CCCCCNc1ccc([N+](=O)[O-])c2nonc12)ON1C(=O)CCC1=O` [II-4], for the setting “tested up to 0.35 mM”, the “inhibitory activity for PFV integrase single end or concerted integration catalysis” value was “neither TF-1 or NBF-X had inhibitory activity”.
